The values below come from the RNAGym collection of RNA variant scans (doi:10.7554/elife.90254).

The source gives no read counts; variants with many changes may rest on few reads.

The labels stand for the following.
B1: OR4K15 (parent)
chain: GUUAACGGUCAUAGGCCAUGGAAACUAGGAGCACCAUUUCGCUGCCAGUGAAGAAAUGAACAAAGAAAAUCUGGGCCAGGCAGGCAUCAAAAGAAAUAGUCUUGCGCUCAACCAGAAAGUCUGUAAUCAUUUUAAGGGUA

In this data set the parent is B1. Kind of data set: self-cleavage, relative activity (ratio to wild type); higher = more cleavage; in vitro, sequencing; the parent is a self-cleaving ribozyme.
Take A18C U38C A55U A64U A78G A114U: the self-cleavage stood at 0.04.
With U19A A64G A92G, the self-cleavage amounted to 1.78.
On to A18U U57C A60G G119U, for which the self-cleavage turned out to be 2.07.
With U19A A30G A59G A67G A117G U127C the figure was 1.04; with U19A A62G A63G C109A G115U U122C, 0; with A18G A23G U102C, 1.78.
Turning to A18U A23G U103C A134U A140G, the self-cleavage was 0.6.
Regarding A18G A60G U132C, the self-cleavage came out at 1.38.
With A18U U72A C77U A117U the figure was 0.26; with A18U U57C A64G, 1.75; with U19C A22G U43C A55G, 0.93.
The value for A18U A22G A60G U120A was 0.75; that for U19C A23G A69G U139C was 0.8; that for A18G A51G A117U U127C was 0.7.
The value for U19C A23G A69U C105U was 0.73; that for A18U G41A A90U A118G U131C was 0.5.
For the variant U19A A56U A69G A114U, the self-cleavage turned out to be 0.05.
With U19C A22U A24G A90G A117G, the self-cleavage is 1.29.
The value for A18U U19A A30U A118U U130C was 0.5; that for A18U G80U A116G was 0.24; that for A18U A92G A110U was 0.42.
With A18G A23G G136C the figure was 1.
Take A18G U87A U100C U108A U132A: the self-cleavage amounted to 0.
The value for A18G G75A C77U A117G A135U was 0.09; that for A18U A54G A59G U87C A118G was 0.39; that for A18G U26C A60G U72A A135G was 0.06.
With A18U A30G U72C the figure was 0.3; with A18C A64U A96G A126U A140G, 1.52; with A18C A55G U87C A110G U122C, 0.03.
The value for A18C G106U U130C was 0.01; that for A18U A52G U100C was 2.03.
In the case of A18G A47G A67G U122C, the self-cleavage came to 0.38.
On to U19A C32A U70C U100A U102C, for which the self-cleavage came to 1.08.
Regarding A18U U122C A125G, the self-cleavage stood at 0.37.
With U19A A24G A27G C76U A95G, the self-cleavage is 0.07.
With A18G A69G A89G the figure was 0.71.
As for A18G A22G A111G, the self-cleavage worked out at 0.11.
With U19A A64U A69G U132C the figure was 0.38; with U19A A33G U37C U103A, 0.28.
With A18G A59U C128U the figure was 0.65.
With A18G A24G A47C C101U U139A the figure was 0.79; with A18U A63U A118G, 1.18; with A18G A27G U49C U103C U132C, 0.42.
On to A18G A33U A67G U100C, for which the self-cleavage stood at 2.53.
In the case of A18G A62C A68G, the self-cleavage turned out to be 1.29.
For the variant A18U C46U A126U, the self-cleavage was 0.95.
Regarding A18G A86G U87A U103A, the self-cleavage came to 0.14.
Take U19C A33G A125G U130C: the self-cleavage came out at 0.14.
As for A18G G106C A111G U122C, the self-cleavage amounted to 0.01.
On to A18U A78G U108A U139A, for which the self-cleavage was 0.03.
Consider U19C A22G A56G A68G, for which the self-cleavage worked out at 0.68.
With A18G A54G U57A the figure was 1.11.
With A18G A55G A60G A67U A90G A116G the figure was 0.05; with U19A A23G A51G A140G, 1.26.
The value for U19A A36U A66G was 1.74.
Take A18G U39A A69G U70C: the self-cleavage is 0.24.
Consider U19C A23G U37C A62G, for which the self-cleavage was 1.57.
The value for A18G A33G A54G was 0.28; that for A18U U49C A51G A95G was 1.36.
Take A18U A22G A27G A62G U87A: the self-cleavage came out at 1.3.
With A18G A66G A67G G123A the figure was 1.19; with A18G A55G A63G A89G, 1.22; with A18G G53A A94G, 1.67.
As to U19A G74U A117G, the self-cleavage was 0.17.
The value for A18G G29U A54G A135G was 1.59; that for A18C A52C A69G A86U was 0.1; that for A18G A69G U72C was 0.13.
The value for A18U A23C A111G was 0.09; that for A18U U39C A56G U130C was 1.53.
As to A18U A51U A55G U103C G104A A117G, the self-cleavage came to 0.
With A18G A36G U133A, the self-cleavage worked out at 1.85.
The value for A18C U37C A129G was 1.17.
The value for U19A A24G A30U U49A A117U was 0.78; that for A18U A63G A114C was 0.15; that for U19A A23G A82U U103G was 0.07.
With A18G A54G A114U A126G, the self-cleavage was found to be 0.06.
Take A18G U87A G115U: the self-cleavage was found to be 0.12.
In the case of U19A A24G G137U, the self-cleavage is 1.3.
The value for A18G A54G U87A U120C A125C was 0.74.
The value for A18U A24G A116G was 0.6.
With A18U U102C C105A the figure was 0.02; with A18G A60G A86G A91G A110C, 0.17.
For the variant A18U U43C A51C A116G, the self-cleavage worked out at 1.14.
As to A18G A54G A94G U127A, the self-cleavage was determined as 1.97.
